PubChem BioAssay (Tox21)
This list was built around the results that the source calls inconclusive (neither active nor inactive); the mix of calls is not that of the screen. A potency beside an inconclusive call is a rough fit, not a confirmed value. Active and inactive are the calls of the source. Calls follow the shape of the dose curve; as a rule, active = well fitted curve in the direction sought with a large enough effect in the repeat runs; inconclusive = weak or mixed curves; inactive = no such curve, though single readings can be large; an effect the other way counts as inactive or inconclusive.

System: not listed separately
Test: qHTS assay to identify small molecule antagonists of the androgen receptor (AR) signaling pathway using the MDA cell line in the presence of 0.5 nM R1881 - cell viability counter screen (AID 1259242); also: nearly all actives have a fitted effect of over 45% in size
Details: MDA-kb2 viability, CellTiter-Fluor protease fluorescence, 16 h; series mostly up to 92.4 µM
Method in brief: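 MDA-kb2 cells (MMTV-luciferase, AR/GR responsive) were treated with compounds plus 0.5 nM R1881 (final) for 16 hr at 37C, 0% CO2. Viability was then read in the same wells as live-cell protease fluorescence (CellTiter-Fluor, 30 min).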
Potency is read from the fitted curve at half-maximal effect; tags tell the direction and shape of the fitted curve.

Row | Compound | Potency
1 | CC(=O)Nc1ccc(N=Nc2cc(C)ccc2O)cc1 | inconclusive: 48.6 µM [cytotoxic, partial curve]
2 | C=COCCOCCOCCOC=C | inactive
3 | O=C(/C=C/c1ccc(O)c(O)c1)O[C@@H]1C[C@](O)(C(=O)O)C[C@@H](O)[C@H]1O | inactive
4 | O=[N+]([O-])c1ccc(NCCO)c(OCCO)c1 | inconclusive: 48.6 µM [cytotoxic, partial curve]
5 | COCCC(=O)OC | inactive
6 | CCCCCCOC(=O)CCCCCCCC(=O)OCCCCCC | inactive
7 | CCCCC(CC)CO (stereo not given) | inactive

Molecular target: Androgen receptor (Homo sapiens) (UniProt P10275)
Sequence of UniProt P10275 (P10275 whole entry, looked up): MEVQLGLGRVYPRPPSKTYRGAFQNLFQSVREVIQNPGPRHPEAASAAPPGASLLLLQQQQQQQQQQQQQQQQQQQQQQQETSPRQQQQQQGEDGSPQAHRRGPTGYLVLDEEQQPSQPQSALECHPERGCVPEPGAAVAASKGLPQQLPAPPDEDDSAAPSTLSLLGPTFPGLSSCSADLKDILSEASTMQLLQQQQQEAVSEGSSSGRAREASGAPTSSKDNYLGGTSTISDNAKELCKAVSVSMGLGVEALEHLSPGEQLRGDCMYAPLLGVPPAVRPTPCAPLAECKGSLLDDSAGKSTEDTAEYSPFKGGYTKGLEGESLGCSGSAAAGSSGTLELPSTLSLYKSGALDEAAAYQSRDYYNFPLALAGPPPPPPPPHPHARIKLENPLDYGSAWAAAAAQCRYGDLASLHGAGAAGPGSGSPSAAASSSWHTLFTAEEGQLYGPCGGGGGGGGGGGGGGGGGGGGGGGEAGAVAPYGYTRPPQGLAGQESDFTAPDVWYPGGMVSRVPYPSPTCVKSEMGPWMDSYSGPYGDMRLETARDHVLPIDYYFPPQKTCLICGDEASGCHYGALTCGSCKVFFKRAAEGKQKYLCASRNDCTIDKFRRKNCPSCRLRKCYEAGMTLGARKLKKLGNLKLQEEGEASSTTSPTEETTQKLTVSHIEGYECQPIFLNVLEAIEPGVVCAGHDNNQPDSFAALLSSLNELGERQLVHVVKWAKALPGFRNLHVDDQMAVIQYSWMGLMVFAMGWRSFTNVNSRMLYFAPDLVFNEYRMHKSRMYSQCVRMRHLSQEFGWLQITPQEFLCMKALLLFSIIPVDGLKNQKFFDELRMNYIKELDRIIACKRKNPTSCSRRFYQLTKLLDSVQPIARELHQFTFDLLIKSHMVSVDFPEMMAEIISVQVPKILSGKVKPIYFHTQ
Test: qHTS assay to identify small molecule antagonists of the androgen receptor (AR) signaling pathway using the MDA cell line in the presence of 0.5 nM R1881 (AID 1259243); also: nearly all actives have a fitted effect of over 50% in size
Details: MDA-kb2 MMTV-luciferase, R1881 0.5 nM, 16 h; series mostly up to 92.4 µM
Method in brief: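 MDA-kb2 cells (MMTV-luciferase, responsive to AR and GR) at 3,000/well, rested 5 h at 37C, 0% CO2, then given compounds plus 0.5 nM R1881 (final) for 16 hr. Luciferase read with ONE-Glo after 30 min at room temperature.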

Row | Compound | Potency
8 | ON(Cc1ccccc1)Cc1ccccc1 | inconclusive: 19.3 µM [inhibitor, full curve]
9 | O=C(c1ccccc1)c1ccc(Cl)cc1 | inconclusive: 43.3 µM [inhibitor, partial curve]
10 | COc1cc(/C=C/C(N)=O)cc(OC)c1OC | inactive
11 | CCN(CC)c1ccc(C=O)c(O)c1 | inconclusive: 1.72 µM [inhibitor, full curve]
12 | Cc1ccc(-c2ccccc2C#N)cc1 | active: 11.9 µM
13 | CC(C)C(=O)Nc1cccc(C2CN3CCSC3=N2)c1 (stereo not given) | inactive
14 | COc1ccc2c(c1)c1c3n2CCN(C)C3=NCC1 | inconclusive: 29.8 µM [inhibitor, partial curve, poor fit]
15 | COc1ccccc1OC(=O)Oc1ccccc1OC | inconclusive: 21.1 µM [inhibitor, partial curve]
16 | COc1ccc2cc(C=O)ccc2c1 | inconclusive: 21.1 µM [inhibitor, partial curve]
17 | CCCCN(C)C | inactive
18 | OCCOCCOCCO | inactive
19 | Cc1ccc(N)cc1[N+](=O)[O-] | inconclusive: 30.9 µM [inhibitor, partial curve]
20 | C1CCC2OC2C1 (stereo not given) | inactive
21 | O=C(Nc1ccccc1)c1cc([N+](=O)[O-])ccc1Cl | inconclusive: 61.1 µM [inhibitor, partial curve]
22 | NC(=O)C1CO1 (stereo not given) | inactive
23 | O=C(c1ccc(O)cc1)c1ccc(O)cc1 | inconclusive: 30.6 µM [inhibitor, partial curve]
24 | c1ccc(SCCSc2ccccc2)cc1 | inconclusive: 21.5 µM [inhibitor, full curve]
25 | CC(CCO)CC(C)(C)C (stereo not given) | inactive
